According to patent US20240050583A1, “PROTEIN-DRUG CONJUGATE AND SITE-SPECIFIC CONJUGATING METHOD” (HARBOUR BIOMED (SHANGHAI) CO., LTD, priority 2020, published 2024):
Where a chain is given by its changes, count along the chain named. Entries after “also recorded” stand apart in the source; their conditions may differ.

T1: HEK293T-hBCMA cells highly expressing human BCMA (Homo sapiens, UniProt Q02223)
T1 construct: host or cells: HEK293T-hBCMA
T1 sequence (Q02223 1-184): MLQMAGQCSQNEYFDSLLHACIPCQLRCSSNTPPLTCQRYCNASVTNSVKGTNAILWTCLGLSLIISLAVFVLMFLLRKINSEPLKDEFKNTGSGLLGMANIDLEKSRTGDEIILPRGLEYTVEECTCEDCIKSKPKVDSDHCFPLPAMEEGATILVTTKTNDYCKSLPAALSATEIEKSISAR

T2: NCI-H929 cells highly expressing human BCMA (Homo sapiens, UniProt Q02223)
T2 construct: tumor cells NCI-H929 (ATCC, CRL-9068) highly expressing human BCMA; host or cells: NCI-H929
T2 sequence (Q02223 1-184): T1 sequence (Q02223 1-184)

B1: PR004433-ADC (conjugate)
heavy: EVQLVETGGGLIQPGGSLRLSCAASGFTVSDSYMTWVRQAPGKGLEWVSVIFSGGRTYYSDSVKGRFTISRDNAKNTLYLQMNSLRAEDTALYYCARRNYDDTRGTDVFDIWGQGTMVTVSS[not shown - human IgG1 Fc]
B2: PR001046: anti-BCMA HCAb antibody, SEQ ID NO: 68 (antibody)
heavy: B1 heavy with S32N, R56N, S60A
B3: PR002129-ADC (conjugate)
chain: QVQLVQSGGGVVQPGRSLRLSCAASGFTFSSYGMHWVRQAPGKGLEWVAVIWYDGSNKDYADSVKGRFTISRDTSKNTLYLQMNSLRAEDTAVYYCAREQARSFDLWGRGTLVTVSSGGGGSGGGGSGGGGSDIQLTQSPYSLSASVGDRVTITCRASQTINNWLAWYQQKPGKAPKLLIYKASSLESGVPSRFSGSGSGTEFTLTISSLQPDDFATYYCQQYKLYSPMYTFGQGTKVEIKGGGAS[not shown - human IgG1 Fc]

Key:
[1] = molecular target: T1, HEK293T-hBCMA cells highly expressing human BCMA; experiment: FACS binding to HEK293T-hBCMA cells; conditions: flow cytometry FACS
Method: (§1) Specifically, the cells were digested and resuspended in a DMEM complete medium, and the cell density was adjusted to 1×10^6 cells/mL. The cells were seeded in a 96-well V-bottom plate (Corning, #3894) at 100 μL/well, followed by the addition of test antibodies diluted in a 3-fold gradient at a concentration that was 2 times the final concentration, each at 100 μL/well. The cells were incubated at 4° C. for 1 h away from light. Thereafter, the cells in each well were rinsed twice with 100 μL of pre-cooled PBS, and centrifuged at 500 g at 4° C. for 5 min, and then the supernatant was discarded. Thereafter, a fluorescent secondary antibody (Alexa Fluor 488-conjugated AffiniPure Goat Anti-Human IgG, Fcγ Fragment Specific, Jackson ImmunoResearch Inc., #109-545-098, diluted in a 1:500 ratio) was added at 100 μL/well, and the plate was incubated at 4° C. for 30 min away from light. The cells in each well were then rinsed twice with 100 μL of pre-cooled PBS and centrifuged at 500 g at 4° C. for 5 min, and then the supernatant was discarded. Finally, the cells in each well were resuspended in 200 μL of pre-cooled PBS. Fluorescence signal values were read using a BD FACS CANTOII flow cytometer, and the data were processed and analyzed using FlowJo v10 (FlowJo, LLC) software.

[2] = molecular target: T2, NCI-H929 cells highly expressing human BCMA; experiment: FACS binding to NCI-H929 cells; conditions: flow cytometry FACS
Method: as §1
This example further utilized the method described in 0 to study the binding ability of the HCAb antibody PR004433 and a variant molecule thereof to NCI-H929 cells (ATCC, CRL-9068) highly expressing human BCMA.

HCC1954 cells = experiment: Cytotoxic killing experiment (Example 8.5), HCC1954; conditions: 72 h, CellTiter-Glo; proteins up to 30 nM, mc-vc-PAB-MMAE up to 60 nM
Method: This example was to study the cell killing activity of the anti-5T4 antibody coupling product PR004432-ADC against a human breast cancer cell strain HCC1954 (ATCC, CRL-2338) highly expressing human 5T4.
The HCC1954 cells were seeded in a 96-well plate (Perkin Elmer, #6005225) at 4000 cells/50 μL/well and incubated overnight at 37° C. with 5% CO2. Then, a test sample serially pre-diluted was added at 50 μL/well. PR004432, PR004432-ADC and PR004433-ADC were diluted at a 3-fold concentration gradient from the highest final concentration of 30 nM, and mc-vc-PAB-MMAE was diluted at a 3-fold concentration gradient from the highest final concentration of 60 nM. In addition, a well without the test sample was set as a control well. Thereafter, the plates were incubated at 37° C. with 5% CO2 for 72 h, a CellTiter-Glo cell viability detection reagent (Promega, #G7573) was added, then the plates were incubated at room temperature for at least 10 min to obtain stable luminescence signals, and the luminescence values were detected using a microplate reader. The cell viability was calculated based on the luminescence values by the following formula:
Cell viability (%)=(A/B)×100% […]
(§2) The data were processed and analyzed by plotting using GraphPad Prism 8 software, and binding curves of the antibodies to target cells, EC50 values and other parameters were obtained through four-parameter nonlinear fitting.

HEK293T-hBCMA cells = experiment: Cytotoxic killing experiment (Example 9.5), HEK293T-hBCMA; conditions: 72 h, CellTiter-Glo; proteins up to 10 nM, mc-vc-PAB-MMAE up to 20 nM
Method: The HEK293T-hBCMA, NCI-H929, HEK293T and SNU-16 cells were seeded in 96-well plates (Perkin Elmer, #6005225) respectively, with the following seeded cell number: 2500 cells/50 μL/well (HEK293T-hBCMA), 5000 cells/50 μL/well (NCI-H929), 2500 cells/50 μL/well (HEK293T), and 5000 cells/50 μL/well (SNU-16). Then, the plates were incubated overnight at 37° C. with 5% CO2. Then, a test sample serially pre-diluted was added at 50 μL/well. PR004433, PR004433-ADC and PR004432-ADC were diluted at a 3-fold concentration gradient from the highest final concentration of 10 nM, and mc-vc-PAB-MMAE was diluted at a 3-fold concentration gradient from the highest final concentration of 20 nM. In addition, a well without the test sample was set as a control well. Thereafter, the plates were incubated at 37° C. with 5% CO2 for 72 h, a CellTiter-Glo cell viability detection reagent (Promega, #G7573) was added, then the plates were incubated at room temperature for at least 10 min to obtain stable luminescence signals, and the luminescence values were detected using a microplate reader. The cell viability was calculated based on the luminescence values by the following formula: […]
as §2

NCI-H929 cells [3] = experiment: Cytotoxic killing experiment (Example 9.5), NCI-H929; conditions: 72 h, CellTiter-Glo; proteins up to 10 nM, mc-vc-PAB-MMAE up to 20 nM
Method: The HEK293T-hBCMA, NCI-H929, HEK293T and SNU-16 cells were seeded in 96-well plates (Perkin Elmer, #6005225) respectively, with the following seeded cell number: 2500 cells/50 μL/well (HEK293T-hBCMA), 5000 cells/50 μL/well (NCI-H929), 2500 cells/50 μL/well (HEK293T), and 5000 cells/50 μL/well (SNU-16). Then, the plates were incubated overnight at 37° C. with 5% CO2. Then, a test sample serially pre-diluted was added at 50 μL/well. PR004433, PR004433-ADC and PR004432-ADC were diluted at a 3-fold concentration gradient from the highest final concentration of 10 nM, and mc-vc-PAB-MMAE was diluted at a 3-fold concentration gradient from the highest final concentration of 20 nM. In addition, a well without the test sample was set as a control well. Thereafter, the plates were incubated at 37° C. with 5% CO2 for 72 h, a CellTiter-Glo cell viability detection reagent (Promega, #G7573) was added, then the plates were incubated at room temperature for at least 10 min to obtain stable luminescence signals, and the luminescence values were detected using a microplate reader. The cell viability was calculated based on the luminescence values by the following formula:
Cell viability (%)=(A/B)×100%
In which, A=experimental well (target cells+test sample+medium); B=control well (target cells+medium)
as §2
In this example, the method described in 0 was used to study the specific cell killing activity of antigen-binding proteins PR006468 (including a mouse IgG2c hinge region), PR004433 (including a human IgG1 hinge region) and coupling products PR006468-ADC and PR004433-ADC thereof against tumor cells NCI-H929 (ATCC, CRL-9068) highly expressing human BCMA.
In this example, the method described in 0 was used to study the specific cell killing activity of PR005744 and a coupling product PR005744-ADC thereof against tumor cells NCI-H929 (ATCC, CRL-9068) highly expressing human BCMA.

NCI-H929 cells [4] = experiment: Cytotoxic killing experiment (Example 7.5), NCI-H929; format: cell-based, human; conditions: 72 h, CellTiter-Glo; PR001046-ADC at 0.1 μg/mL and above; PR001046 0.01-1 μg/mL; mc-vc-PAB-MMAE 0.1-10 nM
From the text: The data were processed and analyzed by plotting using a GraphPad Prism 8 software. In this example, multiple groups of different PR001046-ADC samples were used, including samples containing different percentages of DAR=2 (D2) components before or after purification.

[5] = molecular target: T3, PanC-1 cells highly expressing human ROR1 (Homo sapiens, UniProt Q01973); experiment: FACS binding to cells highly expressing ROR1; conditions: flow cytometry FACS
T3 construct: tumor cells PanC-1 (ATCC, CRL-1469) highly expressing human ROR1; host or cells: PanC-1
Method: as §1, with “The binding ability of the antigen-binding protein to tumor cells PanC-1 (ATCC, CRL-1469) highly expressing human ROR1 was determined by flow cytometry FACS. Specifically,” for “Specifically,”, “binding proteins” for “antibodies”, “Finally, the cells in each well were resuspended in 200 μL of pre-cooled PBS.” left out

[6] = Molecular weight and coupling product components (DAR) by LC-MS; conditions: non-reduced sample
From the text: In this example, liquid chromatography-mass spectrometry (LC-MS) was used to analyze the protein sample for molecular weight. Those skilled in the art can use different models of liquid chromatography (LC) and mass spectrometer (MS) to establish similar analytical methods according to the technical instructions and through experimental exploration. Only representative methods are listed in this example.
In certain specific embodiments, determination of the molecular weight of a protein sample required desaccharification on the sample to remove modifications such as saccharide chains, for example, the sample was processed with glycosidase PNGase F (NEB, #P0705L) at 37° C. for at least 4 h. For example, in all examples of the present invention, when the molecular weight of protein samples was determined, unless otherwise emphasized, the protein samples to be tested were subjected to desaccharification by the glycosidase PNGase F.
In certain specific embodiments, determination of the reduced molecular weight of a protein sample required reduction on the sample, for example, the sample was processed with […] dithiothreitol (DTT) at 37° C. for 10 min. For example, in all examples of the present invention, the samples after reduction were called reduced samples, and the samples without reduction were called non-reduced samples.
Buffer A was 0.1% formic acid FA dissolved in water, and buffer B was 0.1% formic acid FA dissolved in acetonitrile. Injection: about 1 μg; flow rate: 0.3 mL/min; and operation temperature: 80° C. When reduced samples were tested, buffer A and buffer B were mixed within 12 min to form a linear gradient: using 10-60% B for the first 8 min and 80% B for the last 4 min. When non-reduced samples were tested, buffer A and buffer B were mixed within 9 min to form a linear gradient: using 15-60% B for the first 6 min and 80% B for the last 3 min.
Buffer A was 0.1% formic acid FA dissolved in water, and buffer B was 0.1% formic acid FA dissolved in acetonitrile. Injection: about 10 μL; flow rate: 0.2-0.5 mL/min; and operation temperature: 80° C. The detection wavelength was 214 nm.
In certain specific embodiments, the model of a mass spectrometer used was AB Sceix X500B, and the operating mode thereof was TOF-MS; when reduced samples were tested, a scanning range was 600-4000 m/z; when non-reduced samples were tested, a scanning range was 900-6000 m/z. Original mass spectrums were deconvolved by Sceix OS software to obtain molecular weight maps.
In certain other specific embodiments, the model of a mass spectrometer used was Waters Xevo G2-XS Q-TOF, and a molecular weight scanning range thereof was 500-4000 Da. Original mass spectrums were deconvolved by Water MaxEnt or Agilent MassHunter BioConfirm software.
In multiple specific embodiments of the present application, the combination set of different LC and MS conditions was used to achieve LC-MS combination for determining the molecular weight of protein samples. For example, in 0 and 0, the combination of conditions used was (chromatography column: ACQUITY UPLC Protein BEH C4; LC instrument: Waters Acquity UPLC; MS instrument: Waters Xevo G2-XS Q-TOF).

[7] = lot CY20210202, before purification

T3 sequence (Q01973 30-937): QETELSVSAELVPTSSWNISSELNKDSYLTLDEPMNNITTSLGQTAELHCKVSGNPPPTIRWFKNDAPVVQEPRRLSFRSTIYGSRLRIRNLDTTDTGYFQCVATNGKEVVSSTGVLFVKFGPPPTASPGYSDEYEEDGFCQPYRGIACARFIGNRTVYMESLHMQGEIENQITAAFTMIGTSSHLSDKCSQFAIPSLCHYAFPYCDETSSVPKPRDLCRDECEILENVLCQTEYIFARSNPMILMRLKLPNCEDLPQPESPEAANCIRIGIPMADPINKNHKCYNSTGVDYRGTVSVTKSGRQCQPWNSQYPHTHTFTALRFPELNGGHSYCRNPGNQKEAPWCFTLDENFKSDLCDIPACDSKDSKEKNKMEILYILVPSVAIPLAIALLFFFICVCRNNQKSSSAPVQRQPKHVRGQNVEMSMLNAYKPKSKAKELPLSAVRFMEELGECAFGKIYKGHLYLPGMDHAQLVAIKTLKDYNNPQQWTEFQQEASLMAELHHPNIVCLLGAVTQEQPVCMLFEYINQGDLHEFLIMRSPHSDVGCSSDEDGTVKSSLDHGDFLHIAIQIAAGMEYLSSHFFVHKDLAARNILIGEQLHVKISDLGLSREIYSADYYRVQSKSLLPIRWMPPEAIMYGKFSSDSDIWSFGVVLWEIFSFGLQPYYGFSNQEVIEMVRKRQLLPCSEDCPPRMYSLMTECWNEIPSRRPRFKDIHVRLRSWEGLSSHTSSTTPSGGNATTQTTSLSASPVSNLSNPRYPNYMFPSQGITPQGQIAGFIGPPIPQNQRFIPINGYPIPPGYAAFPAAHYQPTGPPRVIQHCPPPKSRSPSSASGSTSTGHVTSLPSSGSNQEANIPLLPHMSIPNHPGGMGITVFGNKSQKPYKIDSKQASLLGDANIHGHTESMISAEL

Molecule	binding activity to HEK293T-hBCMA cells [1]	binding ability to NCI-H929 cells [2]	cytotoxic killing against HCC1954 cells (HCC1954 cells)	cytotoxic killing against HEK293T-hBCMA cells (HEK293T-hBCMA cells)	cytotoxic killing against NCI-H929 cells (NCI-H929 cells [3])	cell killing of BCMA-positive cells NCI-H929 (NCI-H929 cells [4])	binding activity to PanC-1 cells [5]	Content of DAR = 2 component [6, 7] [%]	Content of DAR = 4 component [6, 7] [%]	Content of DAR = 2 component ([6]; lot HSP31405-20200820, after purification)
B1	strong specific binding	strong specific binding	cannot produce effective killing	specific cytotoxicity; also recorded: effective and specific cytotoxic killing	specific cytotoxicity; also recorded: effective and specific cytotoxic killing					
B2	strong specific binding activity					cannot effectively kill				
B3							strong specific binding activity	74.1	9.0	Main
